Article PMC3466257, “PDGF Suppresses the Sulfation of CD44v and Potentiates CD44v-Mediated Binding of Colon Carcinoma Cells to Fibrin under Flow” (PLoS ONE, 2012)

B1: CD44 immunopurified from untreated LS174T colon carcinoma cells (receptor)
chain: [about 200 residues cut from this listing]ATTLMSTSATATETATKRQETWDWFSWLFLPSESKNHLHTTTQMAGTSSNTISAGWEPNEENEDERDRHLSFSGSGIDDDEDFISSTISTTPRAFDHTKQNQDWTQWNPSHSNPEVLLQTTTRMTDVDRNGTTAYEGNWNPEAHPPLIHHEHHEEEETPHSTSTIQATPSSTTEETATQKEQWFGNRWHEGYRQTPKEDSHSTTGTAAASAHTSHPMQGRTTPSPEDSSWTDFFNPISHPMGRGHQAGRRMDMDSSHSITLQPTANPNTGLVEDLDRTGPLSMTTQQSNSQSFSTSHEGLEEDKDHPTTSTLTSSNRNDVTGGRRDPNHSEGSTTLLEGYTSHYPHTKESRTFIPVTSAKTGSFGVTAVTVGDSNSNVNRSLSGDQDTFHPSGGSHTTHGSESDGHSHGSQEGGANTTSGPIRTPQIPEWLIILASLLALALILAVCIAVNSRRRCGQKKKLVINSGNGAVEDRKPSGLNGEASKSQEMVHLVNKESSETPDQFMTADETRNLQNVDMKIGV
modifications: carries sulfated chondroitin sulfate and dermatan sulfate glycosaminoglycan chains
B2: CD44 immunopurified from PDGF-treated LS174T colon carcinoma cells (receptor)
chain: [about 200 residues cut from this listing]ATTLMSTSATATETATKRQETWDWFSWLFLPSESKNHLHTTTQMAGTSSNTISAGWEPNEENEDERDRHLSFSGSGIDDDEDFISSTISTTPRAFDHTKQNQDWTQWNPSHSNPEVLLQTTTRMTDVDRNGTTAYEGNWNPEAHPPLIHHEHHEEEETPHSTSTIQATPSSTTEETATQKEQWFGNRWHEGYRQTPKEDSHSTTGTAAASAHTSHPMQGRTTPSPEDSSWTDFFNPISHPMGRGHQAGRRMDMDSSHSITLQPTANPNTGLVEDLDRTGPLSMTTQQSNSQSFSTSHEGLEEDKDHPTTSTLTSSNRNDVTGGRRDPNHSEGSTTLLEGYTSHYPHTKESRTFIPVTSAKTGSFGVTAVTVGDSNSNVNRSLSGDQDTFHPSGGSHTTHGSESDGHSHGSQEGGANTTSGPIRTPQIPEWLIILASLLALALILAVCIAVNSRRRCGQKKKLVINSGNGAVEDRKPSGLNGEASKSQEMVHLVNKESSETPDQFMTADETRNLQNVDMKIGV
modifications: sulfation reduced by 46.6±6% relative to untreated controls, primarily on chondroitin and dermatan sulfate chains

Biological target: T1, soluble fibrin fragment (β15–66)2
T1 construct: fibrin β chain, residues 15-66, as a dimer; also called Fibrin (β15–66)2 fragment
Experiment: SPR; BIAcore 3000; CD44 in DMPC proteoliposomes immobilised on an L1 chip, pure liposomes as reference; fibrin fragment (β15–66)2 injected at 0, 50, 120, 180 and 240 nM in HBS at 40 µl/min; global fit to a 1:1 Langmuir model, Kd = koff/kon
Details: both partners purified

Row | Binder | Kd | koff | kon
1 | B1 | 103 nM | 0.0561 s⁻¹ | 546000 M⁻¹ s⁻¹
2 | B2 | 6.71 nM | 0.0044 s⁻¹ | 656000 M⁻¹ s⁻¹
